The whole screen tested about 5,400 compounds, of which about 190 (3.5%) showed an effect of 50% or more. Some of the results follow.
The compounds below were run on Vero-E6 (assay: primary screen, phospholipidosis by LipidTOX staining; higher = more effect of the substance). Settings: 10 µM.
Outline: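 Drug-induced phospholipidosis detected with HCS LipidTOX Red reagent in Vero-E6 cells. Compounds tested at 10 μM, with amiodarone (10 μM) as positive control and DMSO (0.1 v/v %) as vehicle.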
For `CCCCCCCCCCCCCCCCCCCCCC(=O)Nc1ccn([C@@H]2O[C@H](CO)[C@@H](O)[C@@H]2O)c(=O)n1`, the result_ITMP was -5.92%. `CC(C)NCC(O)c1cc(O)cc(O)c1` (stereo not shown) was tested, and the result_ITMP was -4.82%. With `CC(C)NCC(O)COc1cccc2[nH]c3ccccc3c12` (stereo not shown) the result_ITMP was 29%. `CC(C)C(=O)c1ccc(O)c(O)c1` showed a result_ITMP of -1.47%. `CCN(CC)CCCCC(NC(=O)c1ccc([N+](=O)[O-])cc1)c1ccccc1` (stereo not shown) was tested, and the result_ITMP was 16.1%. With `CCCCCCCCCCCCCCSCC(=O)O` the result_ITMP was 0.32%. With `CCCn1cnc2c1c(=O)n(CCCCC(C)=O)c(=O)n2C` the result_ITMP was 1.24%. In the case of `O=C(O)CN(CCN(CC(=O)O)CC(=O)O)CCN(CC(=O)O)CC(=O)O`, the result_ITMP is reported as -0.07%. Compound `CC(C)(CO)Cc1cc(C(C)(C)C)c(O)c(C(C)(C)C)c1` has a result_ITMP of -4.24%. Work on `Fc1ccc(C(c2ccccc2)(c2ccccc2F)n2ccnc2)cc1` (stereo not shown) yielded a result_ITMP of -0.78%. `NC(=O)CN1CC[C@@H](NC(=O)[C@@H]2CCCN2)C1=O` gave a result_ITMP of 0.41%. For `COc1cc(CCc2cc(NC(=O)c3ccc(N4C[C@@H](C)N[C@@H](C)C4)cc3)n[nH]2)cc(OC)c1`, the result_ITMP was 30.8%. Work on `O/N=C/c1cc[n+](COC[n+]2ccc(/C=N/O)cc2)cc1` yielded a result_ITMP of -1.91%. In the case of `C[n+]1ccccc1/C=N/O`, the result_ITMP is reported as -6.44%. `CCOc1cc(N)c(Cl)cc1C(=O)NCC1CN(Cc2ccc(F)cc2)CCO1` (stereo not shown) gave a result_ITMP of 0.46%. For `Cc1cccc(Nc2ccccc2C(=O)O)c1C`, the result_ITMP was -1.77%. In the case of `COc1ccc2[nH]cc(C3=CCNCC3)c2c1`, the result_ITMP is reported as -0.41%. With `O=C(O)CCC(=O)C(=O)O` the result_ITMP was -1.29%. `CC(C)Nc1nc2cc(Cl)c(Cl)cc2n1[C@H]1O[C@@H](CO)[C@H](O)[C@@H]1O` gave a result_ITMP of 0.2%. Compound `CN(CCOc1ccc(C[C@H](Nc2ccccc2C(=O)c2ccccc2)C(=O)O)cc1)c1ccccn1` has a result_ITMP of -4.52%. `NC(N)=NC(=O)c1cnn(-c2cccc3ncccc23)c1C1CC1` was tested, and the result_ITMP was -1.94%. `O=C1OC(CN2CCOCC2)CN1/N=C/c1ccc([N+](=O)[O-])o1` (stereo not shown) was tested, and the result_ITMP was 8.14%. `CC[n+]1c(-c2ccccc2)c2cc(N)ccc2c2ccc(N)cc21` gave a result_ITMP of -2.9%. `Cc1ccsc1C(=CCCN1CCC[C@@H](C(=O)O)C1)c1sccc1C` showed a result_ITMP of 0.53%. Work on `NP(N)(=O)NC(=O)c1ccc(F)cc1` yielded a result_ITMP of -5.79%. With `O=C1c2c(O)cc(O)cc2O[C@H](c2cc(O)c(O)c(O)c2)[C@H]1O` the result_ITMP was -1.12%. In the case of `Cc1ccc(-c2c(-c3nn(C)c4ncnc(N5CC[C@H](N6CCCCC6)C5)c34)cnn2C)cc1`, the result_ITMP is reported as 24.4%. Work on `CC(C)(N)Cc1ccccc1` yielded a result_ITMP of -1.25%. `CCOC(=O)c1ncc2[nH]c3ccc(OCc4ccccc4)cc3c2c1COC` was tested, and the result_ITMP was -9.89%. Work on `Cc1cc(C)c(CNC(=O)c2cc(-c3ccc(N4CCN(C)CC4)nc3)cc3c2c(C)cn3C(C)C)c(=O)[nH]1` yielded a result_ITMP of 33.8%. With `CNCCCN1c2ccccc2CCc2ccccc21` the result_ITMP was 36.6%. `CCN(CC)CCOc1ccccc1C(=O)CCc1ccccc1` gave a result_ITMP of 30.6%. Compound `CC(C)(C(=O)NCC(F)(F)C(F)(F)F)C(=O)N[C@@H]1C(=O)Nc2ccccc2-c2ccccc21` has a result_ITMP of -1.1%. `O=C1CCC(N2C(=O)c3ccccc3C2=O)C(=O)N1` (stereo not shown) gave a result_ITMP of -9.75%. `C[C@H](N)C(=O)N[C@@H](C)P(=O)(O)O` showed a result_ITMP of 8.46%. For `O=C(Nc1ccc(N2CCC(C(=O)N3CCOCC3)CC2)cc1)c1cnc(Oc2ccccc2)nc1`, the result_ITMP was -4.57%. Compound `O=C1NCCN1CCN1CCC(c2cn(-c3ccc(F)cc3)c3ccc(Cl)cc23)CC1` has a result_ITMP of 38.8%. `c1cc2c(c(N3CCNCC3)c1)OCCO2` gave a result_ITMP of -1.86%. With `O=C(O)c1ccc(N2N=C(Cc3ccccc3)/C(=C\c3ccc(-c4ccccc4F)o3)C2=O)cc1` the result_ITMP was -5.6%. For `c1cn2cc(-c3ccc4cn[nH]c4c3)nc(Nc3ccc(N4CCOCC4)cc3)c2n1`, the result_ITMP was -6.5%. `O=C(O)c1cnn(-c2nc3cc(Cl)c(OC(F)(F)F)cc3[nH]2)c1` gave a result_ITMP of -2.3%. With `CCC1=C[C@@H]2C[N@](C1)Cc1c([nH]c3ccccc13)[C@@](C(=O)OC)(c1cc3c(cc1OC)N(C)[C@H]1[C@@](O)(C(=O)OC)[C@H](OC(C)=O)[C@]4(CC)C=CCN5CC[C@]31[C@@H]54)C2` the result_ITMP was 7.31%. Work on `COc1ccc(C(=O)c2c(C)n(CCN3CCOCC3)c3ccccc23)cc1` yielded a result_ITMP of 0.58%. `CCN(CC)CCNC(=O)COc1ccc(OC)cc1` showed a result_ITMP of -4.1%. `CC(=O)OCC1=C(C(=O)O)N2C(=O)[C@@H](NC(=O)Cc3cccs3)[C@H]2SC1` showed a result_ITMP of 0.66%. `COC(=O)c1csc(C(=O)c2c[nH]c3ccccc23)n1` showed a result_ITMP of -2.95%. With `CCOc1ccc(NC(=O)CC(C)O)cc1` (stereo not shown) the result_ITMP was -6.27%. `C=CCn1c(=O)c2cnc(Nc3ccc(N4CCN(C)CC4)cc3)nc2n1-c1cccc(C(C)(C)O)n1` showed a result_ITMP of 32.4%. With `Clc1ccc(C(Cn2ccnc2)OCc2csc3c(Cl)cccc23)c(Cl)c1` (stereo not shown) the result_ITMP was 4.76%. With `Clc1cccc(SC2CCNCC2)n1` the result_ITMP was 0.4%. `CC(=O)N[C@@H]1C[C@H](O)[C@@H](CO)O[C@H]1O[C@H]1[C@H](O)[C@@H](O)[C@H](O)O[C@@H]1C(=O)[O-]` gave a result_ITMP of -0.41%. Work on `CC(C)(CO)CCCCCCC(C)(C)CO` yielded a result_ITMP of -4.7%. `CCCN(CCC)C(=O)C(CCC(=O)OCCCN1CCN(CCOC(=O)Cc2c(C)n(C(=O)c3ccc(Cl)cc3)c3ccc(OC)cc23)CC1)NC(=O)c1ccccc1` (stereo not shown) was tested, and the result_ITMP was -0.73%. `CC(C)[C@@H]1C(=O)N(S(C)(=O)=O)[C@@H]2CCN(C(=O)/C=C/CN3CCCCC3)[C@H]21` gave a result_ITMP of 0.42%. In the case of `Cc1ccnc2c1CCCC2C(N)=S` (stereo not shown), the result_ITMP is reported as -2.36%. With `CCOC(=O)C1=C[C@]2(CC)CCCN3CCc4c(n1c1ccccc41)[C@@H]32` the result_ITMP was -9.49%. In the case of `OCCCCO`, the result_ITMP is reported as -3.35%. In the case of `Cn1c2c(c3ccccc31)CCNCC2`, the result_ITMP is reported as 20.5%. `C[C@H](N)Cc1c[nH]cn1` gave a result_ITMP of -1.54%. `CC(C)c1cc(C(=O)N2Cc3ccc(CN4CCN(C)CC4)cc3C2)c(O)cc1O` gave a result_ITMP of 8.21%. `O=S(=O)(N[C@H](CO)C(C(F)(F)F)C(F)(F)F)c1ccc(Cl)s1` gave a result_ITMP of -3.74%.
